Test results from patent US20220002426A1 (BIOINVENT INTERNATIONAL, published 2022).

How the values were obtained:
[1] = biological target: T1, recombinant human TNFR2-Fc protein (Sino Biological) (human, UniProt P20333 23-257, limits assumed); assay: ELISA, coated TNFR2-Fc
T1 construct: bought; also called human TNFR2 protein; not shown: Fc part of the bought fusion protein; not described
T1 sequence (looked up): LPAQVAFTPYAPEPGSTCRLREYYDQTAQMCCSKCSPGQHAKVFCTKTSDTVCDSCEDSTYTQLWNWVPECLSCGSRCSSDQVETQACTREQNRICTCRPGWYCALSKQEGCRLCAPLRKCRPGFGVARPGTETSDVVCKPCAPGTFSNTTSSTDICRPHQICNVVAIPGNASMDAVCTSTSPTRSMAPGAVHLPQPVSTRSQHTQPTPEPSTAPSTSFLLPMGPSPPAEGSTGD
Procedure: 96-well plates (Lumitrac 600 LIA plate, Greiner) were coated overnight at 4° C. with recombinant human or mouse TNFR2-Fc protein (Sino Biological) at 1 pmol/well. After washing, titrated doses of anti-TNFR2 mAbs from 20 μg/ml to 0.1 ng/ml (133 nM to 1 pM) were allowed to bind for 1 hour. Plates were then washed again, and bound antibodies were detected with an anti-human-F(ab)-HRP secondary antibody (Jackson ImmunoResearch) diluted in 50 ng/ml. Super Signal ELISA Pico (Thermo Scientific) was used as substrate and the plates were analyzed using Tecan Ultra Microplate reader.

[2] = biological target: T2, wild type, full length human TNFR2 (on cells) (human, UniProt P20333 23-461); assay: FACS, activated CD4+ T cells
T2 construct: whole, on cells; also called hTNFR2; TNFRII
T2 sequence (looked up): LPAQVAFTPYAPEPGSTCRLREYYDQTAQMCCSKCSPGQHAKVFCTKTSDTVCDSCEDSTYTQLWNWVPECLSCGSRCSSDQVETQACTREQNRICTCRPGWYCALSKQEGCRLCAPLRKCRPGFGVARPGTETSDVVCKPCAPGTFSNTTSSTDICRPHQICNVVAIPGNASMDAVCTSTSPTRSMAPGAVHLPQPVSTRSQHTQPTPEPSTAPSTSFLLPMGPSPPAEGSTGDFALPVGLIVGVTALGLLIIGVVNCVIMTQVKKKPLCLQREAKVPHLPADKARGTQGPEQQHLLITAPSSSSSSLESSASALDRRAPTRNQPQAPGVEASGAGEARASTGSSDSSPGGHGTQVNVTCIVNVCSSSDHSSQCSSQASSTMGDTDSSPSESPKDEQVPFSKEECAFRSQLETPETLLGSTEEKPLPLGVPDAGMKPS
Procedure: The ability and affinity of TNFR2 n-CoDeR® antibodies to bind TNFR2 expressed on cells were obtained using in vitro activated CD4⁺ T cells. Human CD4⁺ T cells were stimulated with 50 ng/ml rhIL-2 (R&D systems) and Dynabeads® T-Activator CD3/CD28 for T-Cell Expansion and Activation (Gibco) 2-3 days at 37 degrees. […] Cells were then incubated with an APC conjugated a-human IgG secondary ab (Jackson) followed by analysis by flow cytometry (FACSVerse, BD).

B1: 001-G05 (antibody, V domains shown)
VH: EVQLLESGGGLVQPGGSLRLSCAASGFTFSSYAMSWVRQAPGKGLEWVSVISGSGGSTYYAD[… about 20 residues …]MNSLRAEDTAVYYCTTDSGSGSYLWGQGTLVTVSS
VL: QSVLTQPPSASGTPGQRVTISCTGSSSNIGAGYDVHWYQQLPGTAPKLLIYSNNQRPSGVPDRFSGSKSGTSASLAISGLRSEDEADYYCAAWDDSLNGPVFGGGTKLTVLG
notes: IgG
For B1, the EC50 [1] was 0.54 nM and the EC50 [2] was 0.66 nM.
